Data from the supplement of paper PMC4967469.
By IC50 is meant the dose at which the fit gives 50% viability; a fit beyond the top or the lowest dose is shown as a bound at that dose. The AUC spans the tested range (256-fold, ending at the top dose) of the same fit; values near 1 show little effect. For part of these data: Where the top dose is marked as inferred, it was derived from the fitted curves, not read from the paper. For part of these data: An entry number marks a drug with two screens in the source, which often give different values.

Legend:
Test in all cases: Viability of human cancer cell lines after 72 h of drug (GDSC screen)
TW-37 = compound: CC(C)c1ccccc1Cc1cc(C(=O)Nc2ccc(S(=O)(=O)c3ccccc3C(C)(C)C)cc2)c(O)c(O)c1O [TW-37]; details: top dose 5 µM
Description: (§1)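 Human cancer cell lines in 384-well plates, medium with 10% serum, drug for 72 h over a 256-fold dose range (nine 2-fold or five 4-fold steps up to the top dose). Adherent lines were fixed and stained with the nucleic acid dye Syto60, suspension lines read with resazurin; signal relative to control wells, capped at 0 and 100%. One two-parameter sigmoid per drug and line, fitted in a mixed model over all curves with the slope shared within a line.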

T0901317 = compound: O=S(=O)(c1ccccc1)N(CC(F)(F)F)c1ccc(C(O)(C(F)(F)F)C(F)(F)F)cc1 [T0901317]; details: top dose 10.24 µM; top dose inferred
Description: as §1

Nilotinib = compound: Cc1cn(-c2cc(NC(=O)c3ccc(C)c(Nc4nccc(-c5cccnc5)n4)c3)cc(C(F)(F)F)c2)cn1 [Nilotinib]; details: top dose 2 µM
Description: as §1

MP470 = compound: S=C(NCc1ccc2c(c1)OCO2)N1CCN(c2ncnc3c2oc2ccccc23)CC1 [MP470]; details: top dose 20 µM; top dose inferred
Description: as §1

KIN001-270 = compound: Cc1ccc(Nc2cc(-c3cccc(N4C(=O)c5ccccc5C4=O)c3)ncn2)cc1NS(C)(=O)=O [KIN001-270]; details: top dose 20 µM; top dose inferred
Description: as §1

Bicalutamide = compound: CC(O)(CS(=O)(=O)c1ccc(F)cc1)C(=O)Nc1ccc(C#N)c(C(F)(F)F)c1 [Bicalutamide]; details: top dose 10 µM; screen: GDSC drug entry 1502; top dose inferred
Description: as §1

Row | Cell Line | AUC (TW-37) | IC50 (TW-37) [µM] | AUC (T0901317) | IC50 (T0901317) [µM] | AUC (Nilotinib) | IC50 (Nilotinib) [µM] | AUC (MP470) | IC50 (MP470) [µM] | AUC (KIN001-270) | IC50 (KIN001-270) [µM] | AUC (Bicalutamide) | IC50 (Bicalutamide) [µM]
1 | OACM5-1 (oesophagus, semi-adherent) | 0.937 | > 5 | 0.913 | > 10.2 | 0.985 | > 2 | 0.925 | > 20 | 0.866 | > 20 | 0.984 | > 10
2 | OACp4C (oesophagus, adherent) | 0.599 | 0.619 | 0.982 | > 10.2 | 0.958 | > 2 | 0.927 | > 20 | 0.975 | > 20 | 0.97 | > 10
3 | OC-314 (ovary, adherent) | 0.411 | 0.185 | 0.986 | > 10.2 | 0.991 | > 2 | 0.951 | > 20 | 0.958 | > 20 | 0.985 | > 10
4 | OV-56 (ovary, adherent) | 0.456 | 0.238 | 0.989 | > 10.2 | 0.988 | > 2 | 0.987 | > 20 | 0.937 | > 20 | 0.984 | > 10
5 | OVCA420 (ovary, adherent) | 0.727 | 1.74 | 0.98 | > 10.2 | 0.975 | > 2 | 0.941 | > 20 | 0.975 | > 20 | 0.934 | > 10
6 | OVK-18 (ovary, adherent) | 0.315 | 0.0894 | 0.966 | > 10.2 | 0.96 | > 2 | 0.932 | > 20 | 0.961 | > 20 | 0.976 | > 10
7 | PEO1 (ovary, adherent) | 0.45 | 0.226 | 0.96 | > 10.2 | 0.987 | > 2 | 0.931 | > 20 | 0.973 | > 20 | 0.982 | > 10
8 | PWR-1E (prostate, adherent) | 0.37 | 0.137 |  |  | 0.984 | > 2 |  |  |  |  | 0.983 | > 10
9 | QGP-1 (pancreas, adherent) | 0.953 | > 5 | 0.978 | > 10.2 | 0.978 | > 2 | 0.831 | > 20 | 0.972 | > 20 | 0.975 | > 10
10 | RCC-AB (kidney, adherent) | 0.57 | 0.514 | 0.976 | > 10.2 | 0.979 | > 2 | 0.173 | 0.0892 | 0.923 | > 20 | 0.91 | > 10
11 | RCC-FG2 (kidney, adherent) | 0.573 | 0.522 | 0.978 | > 10.2 | 0.974 | > 2 | 0.936 | > 20 | 0.972 | > 20 | 0.963 | > 10
12 | RCC-JF (kidney, adherent) | 0.481 | 0.276 | 0.977 | > 10.2 | 0.979 | > 2 | 0.754 | 7.48 | 0.972 | > 20 | 0.977 | > 10
13 | RCC-JW (kidney, adherent) | 0.448 | 0.224 | 0.986 | > 10.2 | 0.986 | > 2 | 0.498 | 1.23 | 0.964 | > 20 | 0.984 | > 10
14 | RCC-MF (kidney, adherent) | 0.48 | 0.27 | 0.935 | > 10.2 | 0.959 | > 2 | 0.631 | 3.2 | 0.965 | > 20 | 0.974 | > 10
15 | RCH-ACV (B-cell leukaemia, suspension) | 0.574 | 0.478 |  |  | 0.941 | > 2 |  |  |  |  | 0.976 | > 10
16 | RH-18 (rhabdomyosarcoma, adherent) | 0.67 | 1 |  |  | 0.977 | > 2 |  |  |  |  | 0.979 | > 10
17 | SK-GT-2 (stomach, adherent) | 0.598 | 0.589 |  |  | 0.974 | > 2 |  |  |  |  | 0.968 | > 10
18 | SK-GT-4 (oesophagus, adherent) | 0.583 | 0.559 | 0.971 | > 10.2 | 0.95 | > 2 | 0.974 | > 20 | 0.982 | > 20 | 0.979 | > 10
19 | SK-MEL-31 (melanoma, adherent) | 0.663 | 1.01 |  |  | 0.985 | > 2 |  |  |  |  | 0.966 | > 10
20 | SK-MG-1 (glioma, adherent) | 0.5 | 0.313 | 0.987 | > 10.2 | 0.944 | > 2 | 0.974 | > 20 | 0.974 | > 20 | 0.986 | > 10
21 | SNU-61 (large intestine, adherent) | 0.922 | > 5 | 0.982 | > 10.2 | 0.985 | > 2 | 0.936 | > 20 | 0.984 | > 20 | 0.979 | > 10
22 | SNU-81 (large intestine, adherent) | 0.741 | 1.98 | 0.979 | > 10.2 | 0.78 | 1.13 | 0.851 | > 20 | 0.974 | > 20 | 0.964 | > 10
23 | SUP-B8 (B-cell leukaemia, suspension) | 0.8 | 2.39 |  |  | 0.989 | > 2 |  |  |  |  | 0.982 | > 10
24 | TC-YIK (cervix, suspension) | 0.543 | 0.404 |  |  | 0.986 | > 2 |  |  |  |  | 0.967 | > 10
25 | VMRC-LCD (lung adenocarcinoma, adherent) | 0.398 | 0.173 |  |  | 0.993 | > 2 |  |  |  |  | 0.992 | > 10
